Measurements published in the BET-seq Pho4 binding data (Le et al. 2018).
The other results are listed elsewhere or left out. The energies were worked out here from pooled read counts, against the library average; single values are noisy.

Biological target: T1, Pho4 (S. cerevisiae) (UniProt P07270)
T1 sequence: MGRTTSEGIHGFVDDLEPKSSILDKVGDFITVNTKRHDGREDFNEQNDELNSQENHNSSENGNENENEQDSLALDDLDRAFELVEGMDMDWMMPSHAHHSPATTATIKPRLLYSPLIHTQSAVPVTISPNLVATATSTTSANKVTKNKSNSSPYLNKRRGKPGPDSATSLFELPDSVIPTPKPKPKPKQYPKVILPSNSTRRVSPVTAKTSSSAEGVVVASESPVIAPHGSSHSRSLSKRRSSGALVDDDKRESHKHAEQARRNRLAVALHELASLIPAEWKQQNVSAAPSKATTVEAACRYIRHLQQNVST
Assay: relative binding free energy (BET-seq); higher = weaker binding
Settings: reference: library average

Row | Sequence | relative binding free energy [kcal/mol]
1 | TCGTTCACGTGGGTCG | 0.13
2 | GTTAGCACGTGGGTTG | -0.22
3 | TATGTCACGTGTTCTT | 0.09
4 | ACGGTCACGTGTGTGG | 0.15
5 | GGTAGCACGTGGGATA | -0.05
6 | AGATTCACGTGATGAT | 0.27
7 | TAGGACACGTGTGGAC | 0.22
8 | GCTGTCACGTGGGAGG | 0.03
9 | TCGGGCACGTGGTGTT | -0.2
10 | TTCAGCACGTGGTCTG | -0.14
11 | TGACTCACGTGGGATT | 0.21
12 | TGGCTCACGTGGGAGG | 0.16
13 | CGATTCACGTGGATGT | 0.24
14 | TGTTACACGTGATGAA | 0.3
15 | TAGTGCACGTGTGCTA | -0.07
16 | TAGAGCACGTGTGGCT | -0.18
17 | ATAGGCACGTGCTGAG | -0.17
18 | GGTTGCACGTGCGTAT | -0.03
19 | TCAGGCACGTGCTGGG | -0.17
20 | TGGCGCACGTGTTATA | 0.08
21 | TGGGTCACGTGGTGTA | 0.09
22 | GGTTGCACGTGTTTGC | 0.04
23 | TACAACACGTGGAGGG | 0.09

Row | Sequence | relative binding free energy [kcal/mol]
24 | TAGGGCACGTGAGTGC | 0.14
25 | GAGTGCACGTGGCAGG | 0.03
26 | TCGGTCACGTGGAGTT | 0.14
27 | TTTAGCACGTGCTTGA | -0.12
28 | CGAGGCACGTGAATGT | 0.15
29 | TGTTCCACGTGTCTGG | 0.03
30 | ATGTGCACGTGAATAG | 0.16
31 | TAGGACACGTGTATAG | 0.05
32 | AAGGGCACGTGTGCCT | -0.03
33 | TTAGTCACGTGGTAGC | 0.05
34 | CAGTGCACGTGGGGGC | -0.26
35 | GTAGGCACGTGAGTTG | 0.28
36 | TTGAACACGTGTGGTC | 0.03
37 | AGGGGCACGTGTCAGA | -0.13
38 | CGGGTCACGTGTGAGG | 0.24
39 | TGTGTCACGTGGCTTG | -0.04
40 | ATGGGCACGTGTACGA | -0.15
41 | TGTTGCACGTGCCTGT | -0.33
42 | GTGCGCACGTGGAGGT | -0.02
43 | TGGATCACGTGATTGT | 0.39
44 | GTCTACACGTGGTGGA | 0.14
45 | AGGTTCACGTGATAAA | 0.36
46 | GGATCCACGTGTTATG | 0.22

Row | Sequence | relative binding free energy [kcal/mol]
47 | GAAGGCACGTGGATGA | -0.03
48 | GGGGACACGTGTTTAA | 0.14
49 | AAGGACACGTGTTCGG | -0.18
50 | AGTTACACGTGGGTCG | 0.06
51 | TATGACACGTGTATTA | -0.02
52 | ATAAGCACGTGGTGAG | -0.02
53 | GGATTCACGTGTGTGC | 0.3
54 | GATGGCACGTGTGGAC | -0.03
55 | GTACTCACGTGTTTTG | 0.29
56 | CCTATCACGTGTGGTG | 0.11
57 | AACCTCACGTGGGGGT | 0.12
58 | ATTGGCACGTGTGGCC | -0.15
59 | GGATGCACGTGTTAGT | 0.06
60 | CAGATCACGTGGTGGA | 0.1
61 | AGTAGCACGTGTTCTG | -0.14
62 | AAGTGCACGTGAGGCT | 0.23
63 | AGATACACGTGGGGTG | -0.18
64 | TTTAACACGTGGAGGA | 0.07
65 | AGCTTCACGTGGGTGG | 0.05
66 | GGGTCCACGTGTGATT | 0.12
67 | ATCTTCACGTGATTGG | 0.38
68 | AGAGTCACGTGGGATC | 0.08
69 | ATAATCACGTGGGAAG | 0.12

Row | Sequence | relative binding free energy [kcal/mol]
70 | TTGGTCACGTGTAACG | 0.27
71 | ATGGACACGTGGGTAA | -0.17
72 | TGTGTCACGTGTCGTT | 0.15
73 | TTGATCACGTGTGCAG | -0.04
74 | TGATGCACGTGGGAGC | 0
75 | GATTGCACGTGGGTGA | 0.04
76 | TGGAACACGTGTAGGT | 0.07
77 | TGACGCACGTGGTGGT | -0.27
78 | CGTGTCACGTGGGCGT | -0.21
79 | CTTGGCACGTGGTTAT | -0.12
80 | TAGAGCACGTGAGTCG | 0.14
81 | TAGTGCACGTGGGCTA | -0.19
82 | TGTATCACGTGGGGTC | 0.07
83 | TTGTTCACGTGTCGTG | 0.26
84 | GGGTGCACGTGAGTTT | 0.38
85 | CGGTCCACGTGTGAGT | 0.29
86 | TGGGTCACGTGAGTGT | 0.21
87 | GTGAGCACGTGGAGTA | -0.11
88 | TCGAGCACGTGGGGGA | -0.24
89 | TTCGACACGTGAAGTG | 0.27
90 | TTGGACACGTGTTCAT | 0.07
91 | CTACTCACGTGAGGGT | 0.34
92 | AGTAGCACGTGAAAGT | 0.12

Row | Sequence | relative binding free energy [kcal/mol]
93 | GTGCTCACGTGGGGTG | 0.15
94 | TATAACACGTGATGGG | 0.05
95 | GAGGGCACGTGCTTAG | -0.06
96 | CTTTTCACGTGATTGT | 0.23
97 | TTAGTCACGTGGCAAG | 0.02
98 | AGCCGCACGTGGTGGG | -0.14
99 | GGTTACACGTGGTTTT | 0.2
100 | ATGTGCACGTGAGGGA | 0.14
101 | CCAGTCACGTGAGGGT | 0.15
102 | TTTTCCACGTGTTTAG | 0.12
103 | GATGACACGTGCGTTG | 0
104 | CTATACACGTGTGTTT | -0.02
105 | TTGAACACGTGGTACT | 0.04
106 | TGCAGCACGTGTATGT | -0.12
107 | AGGAGCACGTGTGGCT | -0.12
108 | TGTGACACGTGAGCGT | 0.16
109 | CCGATCACGTGGGGTT | 0.03
110 | GAGCGCACGTGGTAGT | -0.04
111 | GGGATCACGTGAGCGT | 0.16
112 | CGGGTCACGTGCGGTA | 0.07
113 | GTTTGCACGTGGCTGT | -0.07
114 | AACAGCACGTGGGTTG | -0.23
115 | TTTGGCACGTGTCTCT | -0.01
